Each structure is given as a SMILES string. Among all 52,000 compounds or so, about 1,700 (3.3%) were called active. Rule as the data show it: active = survival mostly below about 52% (no sharp cut-off); inactive = mostly above about 56%. This is one part of the list.

In this experiment the test system is Wild type. As to the kind of experiment: S. aureus survival, RN4220 and DeltatarO strains – OD600, teichoic acid synthesis inhibitors, primary screen (AID 463173). Particulars: S. aureus RN4220 wild type/DeltatarO growth, OD600, 18 h, stronger effect = lower value, screened at 18.75 µg/mL (by protocol).
`CCN1CCc2c(sc(-n3cccc3)c2C(C)NC(=O)Nc2cc(Cl)c(OC)cc2OC)C1` (stereo unspecified): the survival was inactive: 72%.
Under `CC1(C)CC(=O)c2cc(-c3nc(-c4ccc(Cl)cc4)cs3)c(=O)[nH]c2C1` stands inactive: 78%.
Under `CC(C)Oc1ccc(NC(=O)c2cc3ccccc3o2)cc1` stands inactive: 86%; under `Cc1sc2c(c1C)c(=O)n(Cc1ccccc1)c(=O)n2CC(=O)N(C)c1ccccc1`, inactive: 89%.
Under `CCCNC(=O)c1cnn2c(C(F)F)cc(-c3ccccc3)nc12` stands inactive: 65%; under `COc1ccc(CCNc2oc(COc3cccc(C)c3)nc2C#N)cc1OC`, inactive: 110%; under `CCOc1ccc(Nc2nc3c(S(=O)(=O)c4ccc(CC)cc4)nnn3c3ccc(Cl)cc23)cc1`, inactive: 89%.
As to `CC1CCN(S(=O)(=O)c2ccc3c(ccc(=O)n3CC(=O)NCc3ccc(Cl)cc3)c2)CC1`, the survival is inactive: 59%.
Turning to `COc1ccc(-c2nc(Cn3c(=O)cc(-c4ccccc4)c4c(C)nn(C)c43)c(C)o2)cc1OC`, the survival is inactive: 80%.
As to `CC(=O)N1CCc2cc(Br)cc(S(=O)(=O)NCCc3ccc(Cl)cc3)c21`, the survival was inactive: 75%.
The result for `CC(=O)c1cccc(NC(=O)CCc2nc3cccnc3n2Cc2cccs2)c1` reads inactive: 80%; that for `CCOC(=O)CSc1nc(-c2ccc(F)cc2)cc(C(F)(F)F)c1C#N`, inactive: 71%.
The result for `O=C(c1cccn1-c1nnc(N2CCCCC2)s1)N1CCN(c2ccc(Cl)cc2)CC1` reads inactive: 73%; that for `COc1ccc(CCNc2nc3ccc(C)cc3n3cnnc23)cc1OC`, inactive: 87%.
Under `Cc1cc(C)cc(NC(=O)C(CC(C)C)NC(=O)C2CCCCC2)c1` (stereo unspecified) stands inactive: 69%.
With `CN(C)c1ccc(C(=O)Nc2c(C(=O)NC(C)(C)C)oc3ccccc23)cc1`, the survival is inactive: 65%.
The result for `CC(C)Oc1ccc(CNC(=O)c2ccc3nc(C(C)C)oc3c2)cc1` reads inactive: 132%.
Under `COc1ccc(S(=O)(=O)N(CC(=O)Nc2cc(C)cc(C)c2)c2ccc(Cl)cc2)cc1` stands inactive: 94%.
Under `CCn1c(C(=O)N2CCC(C(=O)N3CCN(c4ccc(OC)cc4)CC3)CC2)cc2sccc21` stands inactive: 62%.
On to `COc1ccc(Cl)cc1N=C1NC(=O)CC(C(=O)Nc2ccccc2C(F)(F)F)S1` (stereo unspecified), for which the survival was inactive: 71%.
On to `CCc1ccccc1N1CC(c2nc3ccccc3n2CCOc2ccc(Cl)c(C)c2)CC1=O` (stereo unspecified), for which the survival is active: 2%.
With `Cc1ccn2cc(-c3cccc(NC(=O)CCC(=O)O)c3)nc2c1`, the survival was inactive: 120%.
As for `CCNc1nc(NC(C)(C)C)nc(Oc2ccc(=O)n(-c3ccccc3)n2)n1`, the survival is inactive: 76%.
Under `CCc1nn2c(=O)cc(COC(=O)c3ccc4c(c3)OCO4)nc2s1` stands inactive: 71%.
The result for `O=C(NCCn1cc(SCc2ccccc2)c2ccccc21)c1cccs1` reads inactive: 69%; that for `CCCc1cc(=O)[nH]c(Nc2ccccc2O)n1`, inactive: 86%; that for `COc1ccc(-c2nc3scc(CCNS(=O)(=O)c4c(C)cc(C)cc4C)n3n2)cc1OC`, inactive: 100%.
The result for `CC(=O)c1c(C)n(-c2ccc(Cl)cc2)c2ccc(OC(=O)COc3ccccc3)cc12` reads inactive: 87%; that for `CC(=O)c1cccc(NC(=O)c2ccc(Cl)c(S(=O)(=O)N3CCOCC3)c2)c1`, inactive: 72%; that for `Cc1cc(C)cc(C(=O)Nc2cccc(-c3nc4ncccc4o3)c2C)c1`, inactive: 76%.
With `COc1ccccc1CNC(=O)CCCCn1c(=O)c2ccccc2n(Cc2ccccc2C)c1=O`, the survival was inactive: 99%.
The result for `CC(C)(C)C1CCc2c(sc(NC(=O)c3ccccc3F)c2C(=O)NCc2ccco2)C1` (stereo unspecified) reads inactive: 70%; that for `CCN(C(=O)c1ccc(Br)cc1)c1ccccc1`, inactive: 105%; that for `COc1ccc(C2=NS(=O)(=O)N(C)C(C(=O)Nc3ccc(OC(F)(F)F)cc3)=C2)cc1`, inactive: 55%.
The result for `CCOC(=O)c1cc2c(=O)n3ccccc3nc2n(CCOC)c1=NC(=O)c1cc2ccccc2o1` reads inactive: 62%; that for `c1ccc(N2CCN(Cc3nnc(-c4ccc5c(c4)OCO5)o3)CC2)cc1`, inactive: 81%.
Under `CC(C)Oc1ccc(C(=O)NCc2cccnc2)cc1` stands inactive: 111%.
Take `Cc1nn(-c2ccc(N3CCCC3)nn2)c(C)c1CCC(=O)NCc1ccccc1`: the survival is inactive: 77%.
The result for `CN1C(=O)c2ccccc2N(C)C1c1cccs1` (stereo unspecified) reads inactive: 117%; that for `CN(Cc1ccccc1)S(=O)(=O)c1nnc(NC(=O)c2ccccc2Cl)s1`, inactive: 41%; that for `CC(NC(=O)CCCN1C(=O)CCn2nc(-c3cn(C)c4ccccc34)cc21)c1ccccc1` (stereo unspecified), inactive: 72%.
The result for `O=C(CSc1nnc(-c2cccnc2)o1)N(C1CCCCC1)C1CCCCC1` reads inactive: 109%; that for `COc1cccc(-c2ccc3c(N)c(C(=O)c4ccc(F)cc4)sc3n2)c1`, active: 10%; that for `COc1ccc(CNc2ncnc3c2cnn3-c2ccc(Cl)cc2)cc1`, inactive: 70%.
Under `CCOC(=O)c1c(C)oc2nc(C)nc(NCC3CCN(Cc4ccc(F)cc4)CC3)c12` stands inactive: 135%; under `Cc1ccc(CSC2=Nc3ccccc3C3=NC(CCC(=O)NCc4cccs4)C(=O)N23)c(C)c1` (stereo unspecified), inactive: 88%; under `COc1ccc(Nc2ccc3cc(S(=O)(=O)N4CCCC4)ccc3n2)cc1OC`, inactive: 69%.
With `O=C(Nc1ccc(Cl)c(-c2nc3ccccc3o2)c1)c1cccc2c(Cl)cccc12`, the survival was inactive: 67%.
`CCC(Oc1ccccc1)C(=O)N1CCN(Cc2cc(=O)n3nc(-c4cccc(C)c4)sc3n2)CC1` (stereo unspecified): the survival was inactive: 120%.
The result for `Cc1cc(N2CCN(C)CC2)nc2ccc(NC(=O)Nc3ccc(F)cc3F)cc12` reads inactive: 69%; that for `CCOC(=O)c1ccc(N2CCN(c3cc(Cl)ccc3C)CC2)c(NC(=O)Nc2ccc(OCC)cc2)c1`, inactive: 57%; that for `Fc1ccc(-c2nc3c4c(-c5ccccc5)c(-c5ccccc5)oc4ncn3n2)cc1`, inactive: 95%.
Under `COc1cc(Cl)c(NC(=O)CC(C)S(=O)(=O)c2cc3c(cc2C)NC(=O)CO3)c(OC)c1` (stereo unspecified) stands inactive: 68%.
Under `Cc1ccc(NS(=O)(=O)c2c(C)nc3sccn3c2=O)c(Cl)c1` stands inactive: 131%; under `Cc1cc(OCc2nnc(SCC(=O)OC(C)C)o2)ccc1Cl`, inactive: 112%; under `Cc1ccc(-n2c(=O)c3c(c4cc(C)ccc4n3C)n(CC(=O)NCC3CCCO3)c2=O)cc1` (stereo unspecified), inactive: 84%.

The values are drawn from PubChem BioAssay AID463173 (ICCB-Longwood Screening Facility, Harvard Medical School, 2010).
